Screen size: about 48,000 compounds; about 450 (0.94%) were called active. Roughly 19% stayed inconclusive and do not appear here. Calls follow the shape of the dose curve; as a rule, active = well fitted inhibition curve with a large enough effect; inconclusive = small, poorly fitted or top-dose-only effect; inactive = no such curve, though single readings can be large or run the other way. The list shows a part of the results.

The experiment can be described thus: Primary qHTS for Identification of Small Molecule Inhibitors of Huntingtin Promoter Activity. Also: nearly all actives have a fitted effect of over 50% in size. Particulars: HEK293 HTT promoter firefly luciferase reporter (activity 0% = vehicle and -100% = no light), 24 h; series mostly up to 57.5 µM; activity change, negative = inhibition: at the top concentration. An outline of the steps:
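Firefly luciferase signal from promoter-reporter HEK293 cells was scaled between vehicle (0%) and zero RLU (-100%). Compounds were tested at final concentrations of up to 57.5 uM over 24 h at 37 degrees C. PTC124 at 50 uM final served as control inhibitor.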
In general terms: Quantitative high-throughput screening tests each substance at several concentrations.
Regarding `CCC(C)NC(=O)CN1C(=O)c2cccnc2Oc2ccc(C)cc21` (configuration not stated), the “activity change, negative = inhibition” value is inactive: 9.92%.

For `COc1ccc(CCNc2nc(SCc3cccc(F)c3)nc3ccccc23)cc1OC`, the “activity change, negative = inhibition” value was inactive: -3.32%.

For the molecule `COc1ccc(NC(=O)C2CCCN(S(=O)(=O)c3c(C)[nH]c(=O)[nH]c3=O)C2)cc1Cl` (configuration not stated), the “activity change, negative = inhibition” value was inactive: 1.2%.

`CCc1cc2c(cc3c(=O)n(CC(=O)NCCc4ccccc4)ncn32)s1`: the “activity change, negative = inhibition” value is inactive: -0.138%.

As to `Cc1ccc(C)c(NC(=O)c2ccc3c(c2)CCN3S(=O)(=O)c2ccccc2)c1`, the “activity change, negative = inhibition” value is inactive: -30%.

As to `CCC(Sc1nc2ncccc2o1)C(=O)Nc1cccc(C)c1` (configuration not stated), the “activity change, negative = inhibition” value is inactive: 24%.

`COc1ccc2oc(=O)c(-c3nc(-c4ccc(C)c(C)c4)cs3)cc2c1`: the “activity change, negative = inhibition” value was inactive: -0.351%.

Turning to `CCc1ccc(C2c3c(-c4ccccc4)n[nH]c3C(=O)N2c2ccc(C(=O)O)cc2)cc1` (configuration not stated), the “activity change, negative = inhibition” value is inactive: -15.7%.

With `COc1cccc(-n2cc(C(=O)NCc3ccc(C)cc3)c3ccccc3c2=O)c1`, the “activity change, negative = inhibition” value is inactive: -18.2%.

Take `O=C(CN1N=C(c2ccccc2)CCC1=O)NCc1ccc(F)cc1Cl`: the “activity change, negative = inhibition” value is inactive: -6.93%.

For the molecule `COc1ccc(CCNC(=O)Cn2cc(S(=O)(=O)Cc3ccccc3Cl)c3ccccc32)cc1OC`, the “activity change, negative = inhibition” value was inactive: -8.61%.

`O=C(CSc1nnc(-c2ccccc2F)o1)Nc1ccccc1Cl`: the “activity change, negative = inhibition” value was inactive: 42.5%.

Take `CCSc1nnc2c(n1)OC(c1ccc(C)s1)Nc1ccccc1-2` (configuration not stated): the “activity change, negative = inhibition” value was inactive: 18.1%.

With `COc1ccc(-c2cc(OC(=O)c3cccc(Cl)c3)c3c(C)oc(C)c3c(=O)c2)cc1`, the “activity change, negative = inhibition” value is inactive: 29.5%.

On to `CCOc1ccc(NC(=O)Cn2nnc(C(=O)NCCc3ccccc3)c2N)cc1`, for which the “activity change, negative = inhibition” value is inactive: -26.9%.

In the case of `COc1ccc(-c2noc(-c3ccc(NCC4CCCO4)c([N+](=O)[O-])c3)n2)cc1` (configuration not stated), the “activity change, negative = inhibition” value is inactive: -12%.

`CCc1nn(CC(=O)Nc2c(C)cccc2C)c(=O)c2cc3sccc3n12`: the “activity change, negative = inhibition” value was inactive: 0.907%.

For `CCOC(=O)c1noc2ncn(CC(=O)Nc3cccc(Cl)c3)c(=O)c12`, the “activity change, negative = inhibition” value was inactive: 0.593%.

As to `COc1ccccc1NC(=O)CSc1oc(-c2ccccc2)nc1S(=O)(=O)c1ccc(C)cc1`, the “activity change, negative = inhibition” value was inactive: -23.1%.

With `Cc1ccc2nc(-c3cccnc3)c(Nc3ccc(C(C)C)cc3)n2c1`, the “activity change, negative = inhibition” value is inactive: -24.8%.

Regarding `O=C(COc1ccc2ccccc2c1)NC1CC(=O)N(c2ccccc2)C1` (configuration not stated), the “activity change, negative = inhibition” value is inactive: -22.9%.

Regarding `O=C(c1ccc(F)cc1)n1nc(-c2cccnc2)nc1NCc1ccc(F)cc1`, the “activity change, negative = inhibition” value is inactive: -29%.

Take `O=C(NCCc1ccc(Cl)cc1)C1COc2ccccc2C1` (configuration not stated): the “activity change, negative = inhibition” value was inactive: -2.03%.

Turning to `Cc1cn2c(=O)c(S(=O)(=O)N3CCN(c4cc(Cl)ccc4C)CC3)c(C)nc2s1`, the “activity change, negative = inhibition” value is inactive: -7.19%.

For the molecule `CCOC(=O)c1ccc(NC(=O)c2cn(-c3ccccc3)nc2-c2ccc(OC)c(OC)c2)cc1`, the “activity change, negative = inhibition” value is inactive: -1.07%.

Take `O=C(Nc1cccc(-c2nc3cccnc3s2)c1)c1cccc(Br)c1`: the “activity change, negative = inhibition” value was inactive: -25.1%.

In the case of `Cc1ccc(S(=O)(=O)c2nc(-c3cccs3)oc2SC(C)C)cc1`, the “activity change, negative = inhibition” value is inactive: -24.6%.

The values are drawn from PubChem BioAssay AID1508623 (National Center for Advancing Translational Sciences (NCATS), 2021).
